Results are given in words; binding and its absence hold for the method and conditions named. Some binding calls cover weakened binding; strength is not graded here. For some of these results: Tags and fused reporters may be left off the sequences shown.
T1: Acyl-coenzyme A binding domain containing protein 3 (ACBD3), full length, untagged (human), Q9H3P7
T1 chain: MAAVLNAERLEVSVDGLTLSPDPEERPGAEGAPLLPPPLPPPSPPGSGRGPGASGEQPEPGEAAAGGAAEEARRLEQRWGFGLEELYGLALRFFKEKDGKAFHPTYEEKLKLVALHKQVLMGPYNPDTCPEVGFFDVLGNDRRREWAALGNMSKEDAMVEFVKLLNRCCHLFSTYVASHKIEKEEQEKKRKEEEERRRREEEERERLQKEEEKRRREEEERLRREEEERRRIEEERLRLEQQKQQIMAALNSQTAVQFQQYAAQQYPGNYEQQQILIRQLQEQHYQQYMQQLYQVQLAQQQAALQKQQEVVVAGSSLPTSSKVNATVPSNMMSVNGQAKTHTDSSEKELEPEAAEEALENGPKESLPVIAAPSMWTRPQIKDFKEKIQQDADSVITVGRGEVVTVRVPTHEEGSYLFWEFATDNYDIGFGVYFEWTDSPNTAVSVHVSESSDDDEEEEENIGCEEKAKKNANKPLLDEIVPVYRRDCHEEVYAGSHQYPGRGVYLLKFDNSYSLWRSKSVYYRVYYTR

B1: PI4KB N-terminal region (residues 1-68) (domain or fragment, UniProt Q9UBF8 1-68)
chain: MGDTVVEPAPLKPTSEPTSGPPGNNGGSLLSVITEGVGELSVIDPEVAQKACQEVLEKVKLLHGGVAV
B2: Acyl-coenzyme A binding domain containing protein 3 (ACBD3), full length, untagged, Q9H3P7 1-528 (protein)
chain: T1 chain

Tests used:
[1] = biological target: ACBD3 Q domain (residues 241-308) (human) (UniProt Q9H3P7); assay: NMR structure; solution structure of the co-expressed 15N/13C labelled complex, 470 μM, 25 mM sodium phosphate pH 6.5, 100 mM NaCl, 1 mM TCEP, 25 °C; both purified
[2] = biological target: ACBD3 Q domain (residues 241-308) (human) (UniProt Q9H3P7); assay: AUC; sedimentation velocity, ACBD3 Q domain and PI4KB N-terminal region, 35 μM (both proteins); 10 mM Tris pH 8, 200 mM NaCl, 3 mM β-mercaptoethanol, 20 °C, 48000 rpm; c(s) model; both purified
[3] = biological target: PI4KB N-terminal region (residues 1-68) (human) (UniProt Q9UBF8); assay: as above
[4] = biological target: T1, Acyl-coenzyme A binding domain …; assay: AUC; sedimentation velocity, full-length proteins alone and as complex, 5 μM (both proteins); 10 mM Tris pH 8, 200 mM NaCl, 3 mM β-mercaptoethanol, 20 °C, 48000 rpm; c(s) model; both purified; conditions: remark: other sources report otherwise

| Binder | binding [1] | binding [2] | binding [3] | binding [4] |
| --- | --- | --- | --- | --- |
| B1 | binds | binds | no binding (tested: 35 μM) |  |
| B2 |  |  |  | no binding (tested: 5 μM) |

From article PMC4806292
